The values that follow come from the domain aggregation screens of Martell et al. (2025).

The series is described as follows: soluble fraction after stress (log2 fold change); higher = more stays soluble; pooled small domains, quantitative proteomics. To be noted: stress: pH 4. An outline of the steps:
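Aggregation propensity is estimated from the fold change in each domain's soluble amount after acid stress. Pooled small-domain libraries were stressed at pH 4, and higher log2 values mean more stayed soluble.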

As to “HMRRLQTVVFQKGLATTIRQARQLINHGHIFVDGHKVTVPGYLVLREEEGSVAYNPASPFTDENHPM”, the “soluble fraction (log2)” value came to 0.0735. For the sequence “HMTEEDLIEAFKIFDKDGNGVISAQELRHVMTTLGERLTEEEADEMIREADIDGDGYINYHEFVRIMM”, the “soluble fraction (log2)” value is -1.66.
